Consider two substances from the supplement of paper PMC5998384.

Data set [1] concerns HeLa Kyoto. The data set is described as follows: solubility in G1/S (NP-40 vs SDS abundance) (log2 ratio); higher = more soluble. The note with it: cell cycle stage: G1/S.
Data set [2] relates to HeLa Kyoto. The data set can be described thus: melting temperature (median over replicates), in situ; higher = more thermally stable.
In data set [3] the test system is HeLa Kyoto. The data set is described as follows: thermal stability score vs G1/S (z-score of summed log2 fold changes over temperatures); higher = more thermally stable than in G1/S.
Data set [4] relates to HeLa Kyoto. The data set can be described thus: solubility change mitosis vs G1/S (difference of NP-40 vs SDS log2 ratios) (log2 ratio difference); higher = more soluble in mitosis.
[5] abbreviates: cell cycle stage: early G1 (4.5 h after nocodazole release).
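Throughout, for melting temperature (median over replicates), in situ: HeLa Kyoto cells synchronized by double thymidine or nocodazole block, proteins quantified by TMT10plex mass spectrometry, three independent biological replicates.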
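Throughout, for solubility change mitosis vs G1/S (difference of NP-40 vs SDS log2 ratios): synchronized HeLa Kyoto cells (double thymidine block for G1/S, nocodazole release for mitosis), protein amounts in NP-40 versus SDS lysates quantified by mass spectrometry, three biological replicates.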
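Throughout, for solubility in G1/S (NP-40 vs SDS abundance): HeLa Kyoto cells arrested at G1/S by double thymidine block, proteins quantified by TMT10plex mass spectrometry in mild NP-40 versus SDS extracts, three biological replicates.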
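Throughout, for thermal stability score vs G1/S (z-score of summed log2 fold changes over temperatures): synchronized HeLa Kyoto cells, proteins quantified by TMT10plex mass spectrometry, three biological replicates, mitosis taken 0.5 h after nocodazole release, G1/S directly after double thymidine block.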

RAB7A (sequence left out): in data set [1], the “solubility in G1/S (log2)” value was found to be 0.194. The figures for the melting temperature in data set [2] (cell cycle stage: G1/S) and in data set [2] (cell cycle stage: mitosis) were 58.6 °C and 58.7 °C, respectively. The thermal stability score in data set [3] (setting [5]) was -0.154; in data set [3] (cell cycle stage: mitosis) it was -1.67. For the same substance, in data set [4], the “solubility change mitosis (log2)” value was -0.0341.

On to SNRNP70 (sequence left out), for which the “solubility in G1/S (log2)” value in data set [1] is -0.825. For the same substance, the melting temperature in data set [2] (cell cycle stage: G1/S) and in data set [2] (cell cycle stage: mitosis) was 50.8 °C throughout. For the same substance, the thermal stability score in data set [3] (setting [5]) was -2.71; in data set [3] (cell cycle stage: mitosis), -2.66. The “solubility change mitosis (log2)” value in data set [4] was 0.314.
